Data taken from PubChem BioAssay (NCATS).
The shares of active, inactive and inconclusive entries below differ from those in the screen. No potency is given beside an inconclusive call; the fits are too rough. Active and inactive are the calls of the source. Unless noted, calls come from the whole dose curve; as a rule, active = well fitted curve in the direction sought with a large enough effect in the repeat runs; inconclusive = weak or mixed curves; inactive = no such curve, though single readings can be large; an effect the other way counts as inactive or inconclusive.

Tests used:
[1] = A High-Content qHTS Against Drug Library for the Identification of Small Molecules that Inhibit DYT1 Early Onset Primary Dystonia-Associated Cell Pathology (AID 1645839; calls by dose curve)
Outline: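 High-content imaging quantified EGFP-TorsinA mislocalization in HEK293-derived cells inducibly expressing DYT1 mutant torsinA, after 48 h exposure to compound given together with tetracycline induction. Cell count served as a toxicity channel alongside %pathology.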

[2] = biological target: Cytochrome P450 2C9 (Homo sapiens) (UniProt P11712); experiment: Cytochrome P450 family 2 subfamily C member 9 (CYP2C9) small molecule antagonists: luciferase biochemical (cell-free) qHTS assay (AID 1645842); note: nearly all actives have a fitted effect of over 55% in size
UniProt P11712, sequence (P11712 whole entry, looked up): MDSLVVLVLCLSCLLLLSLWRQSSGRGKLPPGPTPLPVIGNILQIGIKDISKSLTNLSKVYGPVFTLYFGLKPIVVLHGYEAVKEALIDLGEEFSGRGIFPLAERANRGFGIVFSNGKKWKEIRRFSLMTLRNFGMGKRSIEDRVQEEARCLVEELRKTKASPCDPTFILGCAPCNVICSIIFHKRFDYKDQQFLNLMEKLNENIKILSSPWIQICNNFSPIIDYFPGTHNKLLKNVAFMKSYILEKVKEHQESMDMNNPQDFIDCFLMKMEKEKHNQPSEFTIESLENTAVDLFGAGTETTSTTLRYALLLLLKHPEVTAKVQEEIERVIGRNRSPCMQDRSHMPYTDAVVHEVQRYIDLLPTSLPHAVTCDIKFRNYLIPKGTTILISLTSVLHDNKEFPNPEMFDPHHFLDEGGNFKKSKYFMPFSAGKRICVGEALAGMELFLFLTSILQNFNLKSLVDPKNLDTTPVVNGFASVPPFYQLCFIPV
Outline: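 P450-Glo CYP2C9 system: proluciferin substrate with enzyme in mix containing 0.4% BSA, 10 min at room temperature, then NADPH regeneration solution added and incubated 1 h at 37C. Detection reagent stopped reaction; luminescence read after 20 min as RLU.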

[3] = biological target: Cytochrome P450 2D6 (Homo sapiens) (UniProt P10635); experiment: Cytochrome P450 family 2 subfamily D member 6 (CYP2D6) small molecule antagonists: luciferase biochemical (cell-free) qHTS assay (AID 1645840); note: nearly all actives have a fitted effect of over 55% in size
UniProt P10635, sequence (P10635 whole entry, looked up): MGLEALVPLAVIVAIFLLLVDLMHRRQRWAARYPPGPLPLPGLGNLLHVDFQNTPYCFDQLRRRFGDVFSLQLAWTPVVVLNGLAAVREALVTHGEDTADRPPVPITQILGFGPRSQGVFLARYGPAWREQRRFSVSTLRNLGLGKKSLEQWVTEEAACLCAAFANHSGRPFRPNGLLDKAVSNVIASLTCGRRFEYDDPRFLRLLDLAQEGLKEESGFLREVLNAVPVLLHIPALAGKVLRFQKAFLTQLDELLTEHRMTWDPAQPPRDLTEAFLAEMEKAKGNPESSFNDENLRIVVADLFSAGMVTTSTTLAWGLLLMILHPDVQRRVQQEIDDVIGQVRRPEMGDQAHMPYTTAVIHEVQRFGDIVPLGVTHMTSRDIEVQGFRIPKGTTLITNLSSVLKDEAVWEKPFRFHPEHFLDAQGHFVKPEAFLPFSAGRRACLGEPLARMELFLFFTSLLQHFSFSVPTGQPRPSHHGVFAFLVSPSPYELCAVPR
Outline: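 P450-Glo CYP2D6 system: proluciferin substrate converted by enzyme to luciferin, read by luminescence proportional to activity. Enzyme-substrate mix with compound 10 min at room temperature, then NADPH regeneration 1 h before detection reagent.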

[4] = biological target: Cytochrome P450 3A4 (Homo sapiens) (UniProt P08684); experiment: Cytochrome P450 family 3 subfamily A member 4 (CYP3A4) small molecule antagonists: luciferase qHTS assay (AID 1645841); note: nearly all actives have a fitted effect of over 45% in size
UniProt P08684, sequence (P08684 whole entry, looked up): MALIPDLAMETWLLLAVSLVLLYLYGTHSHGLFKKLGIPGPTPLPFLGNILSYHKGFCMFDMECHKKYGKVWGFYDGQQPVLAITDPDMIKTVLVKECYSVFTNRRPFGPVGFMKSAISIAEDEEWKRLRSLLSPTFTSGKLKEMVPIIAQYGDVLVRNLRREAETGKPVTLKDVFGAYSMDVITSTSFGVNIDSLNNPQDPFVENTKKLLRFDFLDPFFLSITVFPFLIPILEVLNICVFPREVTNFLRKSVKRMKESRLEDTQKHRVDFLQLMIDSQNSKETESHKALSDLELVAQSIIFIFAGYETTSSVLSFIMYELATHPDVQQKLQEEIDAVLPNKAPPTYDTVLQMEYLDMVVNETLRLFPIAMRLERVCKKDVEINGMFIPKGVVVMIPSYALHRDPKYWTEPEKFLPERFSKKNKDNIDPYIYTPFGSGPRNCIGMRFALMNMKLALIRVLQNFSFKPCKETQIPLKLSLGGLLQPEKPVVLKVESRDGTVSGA
Outline: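 Luminescent CYP3A4 activity readout: compounds plus enzyme-substrate mix 10 min at room temperature, reaction started with NADPH regenerating system for 1 h, stopped with detection reagent, read after 20 min. Ketoconazole served as control.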
Potency is the fitted concentration of half-maximal effect; tags give direction and shape of the fitted curve.

Question: For CCC(OC(C)=O)C(CC(C)NC)(c1ccccc1)c1ccccc1 (configuration not stated), which Potency [1] is on record?
Answer: inconclusive [inhibitor, partial curve, poor fit]

Question: What about the Potency [2] of the same compound?
Answer: inconclusive [inhibitor, single point]

Question: Which results are given for CCCN(CCC)c1c([N+](=O)[O-])cc(S(N)(=O)=O)cc1[N+](=O)[O-]?
Answer: Potency [1]: active: 28.2 µM; Potency [3]: active: 29.1 µM; Potency [4]: active: 8.44 µM; Potency [2]: active: 3.77 µM

Question: Which results are given for O=c1oc2ccccc2c(O)c1C(CC(O)c1ccc(-c2ccc(Br)cc2)cc1)c1ccccc1 (configuration not stated)?
Answer: Potency [1]: inconclusive [inhibitor, partial curve, poor fit]; Potency [3]: inconclusive [inhibitor, single point]

Question: For COc1cc(CC(C)N)cc2c1OCO2 (configuration not stated), which Potency [1] is on record?
Answer: inactive

Question: And the Potency [3]?
Answer: inconclusive [inhibitor, full curve, poor fit]

Question: And the Potency [4]?
Answer: inconclusive [falling, partial curve]

Question: What does the source list for COc1ccc2c(c1OC)C(=O)O[C@H]2[C@@H]1c2cc3c(cc2CCN1C)OCO3?
Answer: Potency [1]: inconclusive [inhibitor, single point]; Potency [3]: inconclusive [inhibitor, single point]

Question: With CCC(=O)C(CCN(C)C)(c1ccccc1)c1ccccc1 as the compound, how does the Potency [1] read?
Answer: inconclusive [inhibitor, single point]

Question: What about the Potency [2] of the same compound?
Answer: inconclusive [inhibitor, partial curve]

Question: Which Potency [1] does the source give for CC(C)Oc1cccc(NC(=O)c2ccccc2C(F)(F)F)c1 here?
Answer: inconclusive [inhibitor, single point]

Question: What about the Potency [3] of the same compound?
Answer: inconclusive [inhibitor, single point]
